Reference: PubChem BioAssay AID1347120 (National Center for Advancing Translational Sciences (NCATS), 2019)
The whole screen tested about 390,000 compounds, of which about 930 (0.24%) were called active. The shares of active, inactive and inconclusive entries below differ from those in the screen. Calls come from the whole dose curve; as a rule, active = well fitted activation curve with a large enough effect; inconclusive = small, poorly fitted or top-dose-only effect; inactive = no such curve, though single readings can be large or run the other way. A potency beside an inconclusive call is a rough fit, not a confirmed value.

Assay: qHTS for Suppressors of FUS Proteinopathy: Primary screen using FUS-linked yeast assay; note: nearly all actives have a fitted effect of over 55% in size;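 for growth rescue (activation): plate controls were DMSO vehicle for no effect and reference control for full effect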
Settings: S. cerevisiae FUS-expressing, OD600, 24 h; Potency: growth rescue; growth rescue (activation): at 76.6 µM (top of the series)
How it was run: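 Yeast FUS proteinopathy model; galactose-induced FUS (2%), starting OD 0.005. Cpds in dilution series, 24hr, 30C, 99% humidity. Abs 600 nm growth. Pos ctrl CP55940 (top 92uM final); neg ctrl DMSO.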
Potency is the fitted concentration of half-maximal effect; tags give direction and shape of the fitted curve.

Row | SMILES | growth rescue (activation) | Potency
1 | COC(=O)c1ccc(NC(=O)CSc2nc(=O)n3cccc(C)c3n2)cc1 | inactive: 24% | 
2 | COc1cccc(CNc2nc3cc(-c4ccccc4C)sc3c(=O)n2C)c1 |  | inconclusive: 28.2 µM [activator, single point]
3 | O=C(O)Cc1ccc(NC(=O)c2ccc(NC(=O)c3ccco3)cc2)cc1 |  | inconclusive: 20 µM [activator, partial curve, poor fit]
4 | c1cc2nc(C34CC5CC(CC(C5)C3)C4)[nH]c2cn1 | inactive: -9.9% | 
5 | COc1cccc(-c2csc(N3CCN(C(=O)Nc4ccccc4Cl)CC3)n2)c1 |  | inconclusive: 31.6 µM [activator, single point]
6 | CC(=O)N1C=CN(C(C)=O)C(c2cn(C)c3ccccc23)C1c1cn(C)c2ccccc12 (stereo not drawn) |  | inconclusive: 39.8 µM [activator, partial curve]
7 | COc1cc2c3nnc(-c4ccccc4)c-3cn(Cc3ccc(F)cc3)c2cc1OC | inactive: 4.79% | 
8 | Cc1c(CC(=O)NCc2ccccc2Cl)c(=O)oc2cc(O)ccc12 |  | inconclusive: 50.1 µM [activator, single point]
9 | CC1CC(C)CN(C(=O)C(NS(=O)(=O)c2ccc(Br)s2)c2ccccc2)C1 (stereo not drawn) | inactive: 9.63% | 
10 | Cc1csc2nc(-c3cccc(NC(=O)c4c(F)cccc4F)c3)cn12 |  | inconclusive: 50.1 µM [activator, single point]
11 | Cc1ccc(-c2csc(/C(C#N)=C(\O)CN3CCN(C(=O)c4ccco4)CC3)n2)cc1 |  | inconclusive: 25.1 µM [activator, partial curve, poor fit]
12 | COc1cccc(N2CCN(C(=O)c3cc(-c4ccccc4)nc4c3cnn4C(C)C)CC2)c1 |  | inconclusive: 28.2 µM [activator, partial curve, poor fit]
13 | COc1ccc2nc(-c3ccccc3)cc(C(=O)OCC(=O)N3CCCCC3)c2c1 |  | inconclusive: 31.6 µM [activator, single point]
14 | COc1ccc(CCNc2nc3c(c(=O)n(C)c(=O)n3C)n2Cc2ccccc2Cl)cc1OC | inactive: 4.99% | 
15 | Cc1ccc(S(=O)(=O)C2(C(=O)N3CCN(C4CCCCC4)CC3)CC2)cc1 |  | inconclusive: 12.6 µM [activator, partial curve, poor fit]
16 | Cc1cccc(NS(=O)(=O)c2ccc3c(c2)CCCN3C(=O)C2CCC2)c1C |  | inconclusive: 28.2 µM [activator, single point]
17 | CCn1c(CSCc2ccc(C)cc2)nnc1SCC(=O)N1CCN(c2ccccc2)CC1 |  | inconclusive: 31.6 µM [activator, partial curve, poor fit]
18 | CCn1c(C)cc(/C=C2\NC(=O)N(CC(=O)Nc3cccc(C)c3)C2=O)c1C |  | inconclusive: 28.2 µM [activator, partial curve]
19 | COc1ccc(NC(=O)CN(c2ccc(C)cc2)S(=O)(=O)c2cccs2)cc1 | inactive: -23.6% | 
20 | CN(CC(=O)Nc1ccc(F)cc1)C(=O)COC(=O)c1cccc(N(C)C)c1 | inactive: 25.2% | 

Row | SMILES | growth rescue (activation) | Potency
21 | CC(C)(C)OC(=O)C[C@@H]1C/C=C\C[C@H](CC(=O)N(CCO)Cc2ccccc2)C(=O)NC[C@H](c2ccccc2)OC1=O |  | inconclusive: 22.4 µM [activator, partial curve]
22 | Cc1ccc(S(=O)(=O)Nc2ccc3c(c2)CC(=O)N([C@H](C)CO)C[C@@H](C)[C@H](CN(C)S(=O)(=O)c2ccccc2)O3)cc1 |  | inconclusive: 17.8 µM [activator, partial curve, poor fit]
23 | COc1ccc(S[C@]2(C(=O)N3CCN(C(C)=O)CC3)CC(=O)N(C(=O)c3ccccc3)[C@@H]2c2ccc(OC)cc2)cc1 | inactive: 19% | 
24 | O=C1CC(=O)N(Cc2ccco2)C(=S)N1 |  | inconclusive: 39.8 µM [activator, partial curve, poor fit]
25 | O=C(CCc1ccccc1)N1CCc2c([nH]c3ccccc23)C1c1ccc(F)cc1 (stereo not drawn) |  | inconclusive: 11.2 µM [activator, partial curve, poor fit]
26 | COc1ccc(/C=N/NC(=O)c2cc(-c3ccccc3)nc3ccccc23)cc1O |  | inconclusive: 31.6 µM [activator, partial curve, poor fit]
27 | CCOc1cc(/C=C2/C(=O)N(c3ccccc3)N=C2C)ccc1OC(=O)c1ccco1 |  | inconclusive: 31.6 µM [activator, single point]
28 | CN(Cc1ccccc1)C(=O)c1ccc(NC(=O)Cc2cccc(NC(=O)C3CCN(C(=O)C4CC4)CC3)c2)cc1 |  | inconclusive: 28.2 µM [activator, single point]
29 | CC(C)c1nc(SCC(=O)N2CCCC2)c2ccccc2n1 | inconclusive: 60.5% [activator] | 
30 | FC(F)(F)c1cc(-c2cccs2)nc(-n2cc(Br)cn2)n1 | inactive: 2.08% | 
31 | N#C/C(=C\c1ccc(-c2ccc(C(=O)O)cc2)o1)c1nc2ccccc2[nH]1 |  | inconclusive: 10 µM [activator, partial curve, poor fit]
32 | COC(=O)c1ccc(Oc2ccc(S(=O)(=O)N3CCCCC3)cc2N)cc1 | inactive: 52.1% | 
33 | CCOC(=O)Cc1csc(NC(=O)CSc2nnc(Cc3csc(N)n3)n2C)n1 |  | inconclusive: 28.2 µM [activator, single point]
34 | COc1cc2ncc3c(-c4ccccc4)nn(-c4ccc(C)cc4)c3c2cc1OC | inactive: -7.64% | 
35 | Cc1ccc(OCC(=O)Nc2ccc3nc(SCC(=O)N(C)c4ccccc4)sc3c2)cc1 |  | inconclusive: 20 µM [activator, single point]
36 | O=C1C[C@H](c2ccc3ccccc3c2)N=C2N1/C(=C\c1ccccc1)[C@@H](c1ccccc1C(F)(F)F)N2Cc1ccc2c(c1)OCO2 |  | inconclusive: 25.1 µM [activator, partial curve, poor fit]
37 | O=C(/C=C/c1ccccc1)Nc1cc(NC(=O)/C=C/c2ccccc2)cc(C(=O)O)c1 |  | inconclusive: 50.1 µM [activator, single point]
38 | CCOc1ccc(S(=O)(=O)N2CCC(C(=O)N3CCOCC3)CC2)cc1C | inactive: -1.12% | 
39 | COc1cc(/C=C/C(=O)OCC(=O)NCCC2=CCCCC2)ccc1O | inactive: 13.4% | 
40 | Cc1ccc(C)c(Nc2nnc(-c3ccc(C)c(S(=O)(=O)N4CCCCC4)c3)c3ccccc23)c1 |  | inconclusive: 31.6 µM [activator, single point]

Row | SMILES | growth rescue (activation) | Potency
41 | CC/C=C/C(=O)N1CC2(CC(c3cccc(NC(=O)CC(c4ccccc4)c4ccccc4)c3)=NO2)C[C@@H]1C(N)=O (stereo partly drawn) |  | inconclusive: 31.6 µM [activator, partial curve, poor fit]
42 | C=CCC[C@H](Cc1ccc(F)cc1)C(=O)OC[C@@H](Cc1c[nH]c2ccccc12)NC(=O)[C@H](CC=C)CC(=O)N[C@H](CO)Cc1ccccc1 |  | inconclusive: 12.6 µM [activator, partial curve, poor fit]
43 | CCCCCCCCN1C(=O)[C@H](CC(=O)N2CCOCC2)C[C@@]2(C(=O)OCC)CCCC=C12 |  | active: 11.2 µM
44 | CCCCCCNC(=O)O[C@H]1C[C@H](C(=O)OC)[C@H](C(=O)OC)C2CN(S(=O)(=O)c3ccc(C)cc3)C[C@@]21O (stereo partly drawn) |  | inconclusive: 50.1 µM [activator, partial curve, poor fit]
45 | CCCCNc1c(-c2ccc(-c3cccc(Cl)c3)cc2)nc2ccccn12 |  | inconclusive: 38.5 µM [activator, single point]
46 | COc1ccc(-c2nc3c(C)cc(Br)cn3c2Cc2cccc(F)c2)cc1OC |  | inconclusive: 20 µM [activator, partial curve]
47 | CN(C)c1ccc(C(=O)c2ccccc2)cc1 | inactive: 8.13% | 
48 | Cc1ccc2onc(CC(=O)N3CCN(c4cccc(C)c4C)CC3)c2c1 |  | inconclusive: 50.1 µM [activator, single point]
49 | CC1=C(C(=O)OCc2ccccc2)C(/C=C/c2ccccc2)NC(=S)N1 (stereo not drawn) |  | inconclusive: 11.2 µM [activator, partial curve]
50 | CC[C@]12c3[nH]c4cc(-c5ccco5)ccc4c3CCN1C(=O)[C@@H](CC(=O)NCC13CC4CC(CC(C4)C1)C3)C[C@@H]2C(=O)N1CCN(C(=O)c2ccco2)CC1 |  | inconclusive: 50.1 µM [activator, single point]
51 | COC(=O)[C@@]12C[C@@H](CC(=O)NCCCCc3ccccc3)C(=O)N(Cc3cccc4ccccc34)C1=CCC(C)(C)C2 |  | inconclusive: 25.1 µM [activator, partial curve, poor fit]
52 | Cn1cc(/C=C2\SC(=O)N(c3ccccc3)C2=O)c2ccccc21 | inactive: -17.5% | 
53 | COc1ccc(-c2csc(C3=C(O)CN(Cc4ccc(S(N)(=O)=O)cc4)C3=N)n2)cc1OC |  | inconclusive: 25.1 µM [activator, partial curve, poor fit]
54 | O=C(CN1C(=O)S/C(=C\c2cccs2)C1=O)Nc1ccc(C(=O)O)c(O)c1 | inactive: 12.4% | 
55 | COc1ccccc1N1CCN(S(=O)(=O)c2ccc3c(c2)NC(=O)C(C)S3)CC1 (stereo not drawn) |  | inconclusive: 39.8 µM [activator, single point]
56 | Cc1sc2ncn(CC(=O)N3CCN(c4ccc(F)cc4)CC3)c(=O)c2c1S(=O)(=O)N1CCN(c2ncccn2)CC1 |  | inconclusive: 25.1 µM [activator, partial curve, poor fit]
57 | COc1ccc(-c2cc3nc(C)c(CCC(=O)NC(C)CCc4ccco4)c(C)n3n2)c(OC)c1 (stereo not drawn) |  | inconclusive: 31.6 µM [activator, single point]
58 | CC(=O)n1cc([C@@H]2C=C(C(=O)NCc3ccccc3)O[C@H](OCc3ccc(CO)cc3)C2)c2ccccc21 |  | inconclusive: 50.1 µM [activator, single point]
